TGI and GI50 data for 30 compounds are collected here from PubChem BioAssay (NCI).

Each structure is given as a SMILES string.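 Cells were grown in 96-well plates and exposed to each compound for 48 hours at five concentrations; endpoints were interpolated linearly between bracketing concentrations, or set to the highest concentration if not reached. The concentration for 50% growth inhibition is given as GI50. TGI marks complete inhibition of growth.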 Bounds are passed on as bounds.

This assay concerns NCI-H322M lung. The assay can be described thus: NCI anticancer screen, dose series, 48 h.
The compound `C=C1[C@H](OC(=O)C(C)C)[C@@H](OC(C)=O)[C@@H](OC(C)=O)C(C)(C)[C@@H]2O[C@H]2[C@@H](C)C(=O)[C@@]2(OC(C)=O)C[C@@](C)(OC(C)=O)[C@H](OC(C)=O)[C@@H]2[C@H]1OC(C)=O` registered a TGI of over 100 µM.

Take `COc1ccccc1/C=C/C(=O)c1c(O)cc2occc2c1OC`: the GI50 is over 100 µM and the TGI is over 100 µM.

`N#CC(/C(=N\NC(=O)c1ccncc1)C(=O)Nc1ccc([N+](=O)[O-])cc1[N+](=O)[O-])c1nc(-c2ccc(Br)cc2)cs1` (stereo not given) gave a TGI of over 100 µM.

The compound `Cc1c(-c2ccccc2)[nH]c2ccc(Cl)cc2c1=O` registered a TGI of over 100 µM.

As to `C[C@H]1CC[C@H]([C@@H](C)[C@H]2[C@@H](O)C[C@H]3[C@@H]4CC[C@H]5C[C@@H](O)CC[C@]5(C)[C@H]4CC[C@]23C)NC1`, the TGI was found to be 37.4 µM.

Compound `CNC1C(O)C(OC2C(N)CC(N)C(OC3OC(CN)=CCC3N)C2O)OCC1(C)O` (stereo not given) gave a TGI of over 100 µM.

As to `CC(C)C1C(=O)NC(CO)Cc2c[nH]c3c(C(c4c[nH]c5ccccc45)C(O)CO)ccc(c23)N1C` (stereo not given), the TGI was over 100 µM.

Turning to `C=C(C)CNC(=S)N(N)c1ccc(OC)cc1`, the TGI was over 100 µM.

In turn, `CCOC(=O)C1(C#N)C(c2ccccc2)CC(O)(c2ccc([N+](=O)[O-])cc2)C(C(=O)c2ccc([N+](=O)[O-])cc2)C1c1ccccc1` (stereo not given) came in with a TGI of over 100 µM.

`CC(C)/C(Cl)=N/OC(=O)Nc1cccc(C(F)(F)F)c1` registered a TGI of 18.1 µM.

Turning to `Cc1ncc(C(=O)Nc2ccc(CN3CCN(C)CC3)c(C(F)(F)F)c2)cc1C#Cc1cnc(N)c2cnccc12`, the GI50 is 0.0611 µM and the TGI worked out at 12.2 µM.

Regarding `O=C(CSc1nc2ccccc2nc1-c1ccccc1)Nc1ccc(Cl)cc1`, the GI50 is over 100 µM and the TGI was over 100 µM.

Regarding `CC1=C(C#N)C23C(=O)c4ccccc4C(O)=C2C(=O)C=CC3(O)N1` (stereo not given), the TGI amounted to 43.4 µM.

Compound `c1ccc(CSc2ccccc2CN2CCN(Cc3ccccc3SCc3ccccc3)CCN(Cc3ccccc3SCc3ccccc3)CC2)cc1` registered a TGI of 4.72 µM.

In turn, `CC(=O)OCC1OC(n2c(C#N)cc(=O)[nH]c2=O)CC1OC(C)=O` (stereo not given) had a TGI of over 100 µM.

`CCCCC(C(=O)N/N=C/c1ccc([N+](=O)[O-])o1)C(=O)N/N=C/c1ccc([N+](=O)[O-])o1` yielded a TGI of 28.3 µM.

Compound `C=CCCOC(=O)CO[N+](=O)[O-]` showed a TGI of over 100 µM.

Take `NC(=O)C1c2ccccc2C=Cc2ccccc21`: the GI50 was over 100 µM and the TGI was over 100 µM.

Take `Cc1cc(S(=O)(=O)NC(=C(C#N)C#N)[n+]2ccc(N(C)C)cc2)c([S-])cc1Cl`: the TGI was over 100 µM.

In turn, `COCc1c(CO)cnc(C)c1OC1OC(CO)C(O)C(O)C1O` (stereo not given) gave a TGI of over 100 µM.

For the compound `CCOC(=O)N1CC2(C)C=CC1C(C(=O)OC)C2` (stereo not given), the TGI is over 100 µM.

`Cc1cccc(O)c1-c1nnc(CCCCCCCCc2nnc(-c3c(C)cccc3O)n2N)n1N`: the TGI is over 100 µM.

As to `Nc1nc(Cl)cc(NCCCNc2cc(Cl)nc(N)n2)n1`, the TGI was over 100 µM.

The compound `O=c1c(-c2c(-c3ccccc3)oc3ccc(Cl)cc3c2=O)c(-c2ccccc2)oc2ccc(Cl)cc12` showed a TGI of over 100 µM.

On to `CCSC1=N/C(=C\c2ccco2)C(NN)=N1`, for which the TGI was over 50 µM.

Turning to `N.N.N.N.O=NN1CCCCCC1(P(=O)([O-])[O-])P(=O)([O-])[O-].[Pt+4].[Pt+4]`, the GI50 is over 100 µM and the TGI is over 100 µM.

`O=C(Nc1cccc(NC(=O)C(=O)C2CCC3=C(Sc4ccccc4N3)C2=O)n1)C(=O)C1CCC2=C(Sc3ccccc3N2)C1=O` (stereo not given) registered a TGI of over 100 µM.

Compound `COc1ccc(N=Nc2c(C)c(C#N)c(=S)n(C3OC(COC(C)=O)C(OC(C)=O)C(OC(C)=O)C3OC(C)=O)c2C)cc1` (stereo not given) registered a TGI of over 100 µM.

On to `CC(C)(C)N1C(=O)c2ccccc2C1(O)C(F)(F)F` (stereo not given), for which the TGI is over 100 µM.

As for `CC1=C(C)CC(C#N)(C#N)C(C#N)(C#N)C1`, the TGI is over 10 µM.
